What was measured:
[1] = target: T1, SARS-CoV-2 (BA.5) Spike RBD (SARS-CoV-2 BA.5 strain); assay: ELISA on plate-coated RBD (1 µg/mL), HRP anti-human Fc detection, OD450
T1 construct: domain: RBD; also called BA.5 RBD

[2] = target: T2, RBD of the S protein of the BA.1.1 strain (SARS-CoV-2 BA.1.1 strain); assay: as above
T2 construct: domain: RBD; also called BA.1.1 RBD

[3] = target: T3, RBD of the S protein of the BA.2.12.1 strain (SARS-CoV-2 BA.2.12.1 strain); assay: as above
T3 construct: domain: RBD; also called BA.2.12.1 RBD

[4] = target: T4, SARS-CoV-2 (BF.7) Spike RBD (SARS-CoV-2 BF.7 strain); assay: as above
T4 construct: domain: RBD; also called BF.7 RBD

[5] = target: T5, S protein of the SARS-CoV-2 BQ.1 strain on pseudo-virus (SARS-CoV-2 BQ.1 strain); assay: cell-based or functional assay
[6] = target: T6, S protein of the SARS-CoV-2 BA.2.75 strain on pseudo-virus (SARS-CoV-2 BA.2.75 strain); assay: cell-based or functional assay
[7] = target: T7, S protein of the SARS-CoV-2 BA.4/5 strains on pseudo-virus (SARS-CoV-2 BA.4/5 strain); assay: cell-based or functional assay
[8] = target: T8, S protein of the SARS-CoV-2 BF.7 strain on pseudo-virus (SARS-CoV-2 BF.7 strain); assay: cell-based or functional assay
[9] = target: T9, S protein of the SARS-CoV-2 BA.1 strain on pseudo-virus (SARS-CoV-2 BA.1 strain); assay: cell-based or functional assay
[10] = target: S protein of the SARS-CoV-2 BA.3 strain on pseudo-virus (SARS-CoV-2 BA.3 strain); assay: cell-based or functional assay
[11] = target: S protein of the SARS-CoV-2 BA.1.1 strain on pseudo-virus (SARS-CoV-2 BA.1.1 strain); assay: cell-based or functional assay
[12] = target: S protein of the SARS-CoV-2 XBB.1.16 strain on pseudo-virus (SARS-CoV-2 XBB.1.16 strain); assay: cell-based or functional assay
[13] = target: T10, S protein of the SARS-CoV-2 BQ.1.1 strain on pseudo-virus (SARS-CoV-2 BQ.1.1 strain); assay: cell-based or functional assay
[14] = target: S protein of the SARS-CoV-2 BA.2 strain on pseudo-virus (SARS-CoV-2 BA.2 strain); assay: cell-based or functional assay
[15] = target: T11, S protein of the SARS-CoV-2 XBB strain on pseudo-virus (SARS-CoV-2 XBB strain); assay: cell-based or functional assay
[16] = target: T12, S protein of the SARS-CoV-2 XBB.1.5 strain on pseudo-virus (SARS-CoV-2 XBB.1.5 strain); assay: cell-based or functional assay
[17] = target: T5, S protein of the SARS-CoV-2 BQ.1 strain …; assay: cell-based or functional assay; remark: listed apart in the source
[18] = target: T6, S protein of the SARS-CoV-2 BA.2.75 …; assay: cell-based or functional assay; remark: listed apart in the source
[19] = target: S protein of the SARS-CoV-2 Delta strain on pseudo-virus (SARS-CoV-2 Delta strain); assay: cell-based or functional assay
[20] = target: T7, S protein of the SARS-CoV-2 BA.4/5 …; assay: cell-based or functional assay; remark: listed apart in the source
[21] = target: T8, S protein of the SARS-CoV-2 BF.7 strain …; assay: cell-based or functional assay; remark: listed apart in the source
[22] = target: T9, S protein of the SARS-CoV-2 BA.1 strain …; assay: cell-based or functional assay; remark: listed apart in the source
[23] = target: T10, S protein of the SARS-CoV-2 BQ.1.1 …; assay: cell-based or functional assay; remark: listed apart in the source
[24] = target: T11, S protein of the SARS-CoV-2 XBB strain …; assay: cell-based or functional assay; remark: listed apart in the source
[25] = target: T12, S protein of the SARS-CoV-2 XBB.1.5 …; assay: cell-based or functional assay; remark: listed apart in the source
[26] = target: T13, SARS-CoV-2 BQ.1.1 (Omicron) Spike RBD (SARS-CoV-2 BQ.1.1 strain); assay: ELISA on plate-coated RBD (1 µg/mL), HRP anti-human Fc detection, OD450
T13 construct: domain: RBD; also called BQ.1.1 RBD

[27] = target: T1, SARS-CoV-2 (BA.5) Spike RBD; assay: SPR, Biacore 8K; antibody captured on Protein A chip, RBD as analyte
[28] = target: T4, SARS-CoV-2 (BF.7) Spike RBD; assay: as above
[29] = target: T13, SARS-CoV-2 BQ.1.1 (Omicron) Spike RBD; assay: as above
[30] = target: T14, SARS-CoV-2 XBB (Omicron) Spike RBD (SARS-CoV-2 XBB strain); assay: as above
T14 construct: domain: RBD; also called XBB RBD

B1: bispecific antibody protein DIA-22 (bispecific antibody)
chain: [letters of about 100 residues omitted]FTFGPGTKVDIKGGGGSGGGGSQITLKESGPTLVKPTQTLTLTCTFSGFSLSTSGVGVAWIRQPPGKALEWLALIYWDNDKRSSPSLNNRLTITKDTSKNQVVLTMTNMDPEDTATYYCAHFFSHYDSSNYYYGSWFDPWGQGTLVTVSSGGGGSGGGGSGGGGSGGGGSGGGGSEIVLTQSPGTLSLSPGERATLSCRASQSFDSRYLGWYQQKSGQAPRLLIYGASSRATGIPDRFSGSGSGTDFTLTISRLEPEDFAVYYCQQFGDSPFTFGQGTKLEIKGGGGSGGGGSEVQLVESGGGVVQPGGSLRLSCAVSGFTFDDYAMHWVRQAPGKGLDWVSLISGDGSYTYYADSVKGRFTISRDSSKNSLYLQMNSLRTEDTALYYCAKAQTPTLWWLQDAFDIWGQGTMVTVSSGGGGS[letters of human IgG1 Fc with changes omitted]
[1]
  EC50: 0.153 nM
[2]
  EC50: 0.0312 nM
[3]
  EC50: 0.0484 nM

B2: bispecific antibody protein DIA-20 (bispecific antibody)
chain: EIVLTQSPGTLSLSPGERATLSCRASQSFDSRYLGWYQQKSGQAPRLLIYGASSRATGIPDRFSGSGSGTDFTLTISRLEPEDFAVYYCQQFGDSPFTFGQGTKLEIKGGGGSGGGGSEVQLVESGGGVVQPGGSLRLSCAVSGFTFDDYAMHWVRQAPGKGLDWVSLISGDGSYTYYADSVKGRFTISRDSSKNSLYLQMNSLRTEDTALYYCAKAQTPTLWWLQDAFDIWGQGTMVTVSSGGGGSGGGGSGGGGSGGGGSGGGGS[letters of about 100 residues omitted]FTFGPGTKVDIKGGGGSGGGGSQITLKESGPTLVKPTQTLTLTCTFSGFSLSTSGVGVAWIRQPPGKALEWLALIYWDNDKRSSPSLNNRLTITKDTSKNQVVLTMTNMDPEDTATYYCAHFFSHYDSSNYYYGSWFDPWGQGTLVTVSSGGGGS[letters of human IgG1 Fc with changes omitted]
[1]
  EC50: 0.0843 nM
[2]
  EC50: 0.0343 nM
[3]
  EC50: 0.0476 nM

B3: bispecific antibody protein DIA-21 (bispecific antibody)
chain: EVQLVESGGGVVQPGGSLRLSCAVSGFTFDDYAMHWVRQAPGKGLDWVSLISGDGSYTYYADSVKGRFTISRDSSKNSLYLQMNSLRTEDTALYYCAKAQTPTLWWLQDAFDIWGQGTMVTVSSGGGGSGGGGSEIVLTQSPGTLSLSPGERATLSCRASQSFDSRYLGWYQQKSGQAPRLLIYGASSRATGIPDRFSGSGSGTDFTLTISRLEPEDFAVYYCQQFGDSPFTFGQGTKLEIKGGGGSGGGGSGGGGSGGGGSGGGGSQITLKESGPTLVKPTQTLTLTCTFSGFSLSTSGVGVAWIRQPPGKALEWLALIYWDNDKRSSPSLNNRLTITKDTSKNQVVLTMTNMDPEDTATYYCAHFFSHYDSSNYYYGSWFDPWGQGTLVTVSSGGGGSGGGGS[letters of about 100 residues omitted]FTFGPGTKVDIKGGGGS[letters of human IgG1 Fc with changes omitted]
[1]
  EC50: 0.075 nM
[2]
  EC50: 0.0376 nM
[3]
  EC50: 0.0483 nM

B4: bispecific antibody protein DIA-19 (bispecific antibody)
chain: QITLKESGPTLVKPTQTLTLTCTFSGFSLSTSGVGVAWIRQPPGKALEWLALIYWDNDKRSSPSLNNRLTITKDTSKNQVVLTMTNMDPEDTATYYCAHFFSHYDSSNYYYGSWFDPWGQGTLVTVSSGGGGSGGGGS[letters of about 100 residues omitted]FTFGPGTKVDIKGGGGSGGGGSGGGGSGGGGSGGGGSEVQLVESGGGVVQPGGSLRLSCAVSGFTFDDYAMHWVRQAPGKGLDWVSLISGDGSYTYYADSVKGRFTISRDSSKNSLYLQMNSLRTEDTALYYCAKAQTPTLWWLQDAFDIWGQGTMVTVSSGGGGSGGGGSEIVLTQSPGTLSLSPGERATLSCRASQSFDSRYLGWYQQKSGQAPRLLIYGASSRATGIPDRFSGSGSGTDFTLTISRLEPEDFAVYYCQQFGDSPFTFGQGTKLEIKGGGGS[letters of human IgG1 Fc with changes omitted]
[1]
  EC50: 0.0842 nM
[4]
  EC50: 0.1 nM
[5]
  Neutralization Effects (IC50) against SARS-CoV-2 pseudo-viruses: 3.14 ng/mL
[6]
  Neutralization Effects (IC50) against SARS-CoV-2 pseudo-viruses: 1.01 ng/mL
[7]
  Neutralization Effects (IC50) against SARS-CoV-2 pseudo-viruses: 0.332 ng/mL
[8]
  Neutralization Effects (IC50) against SARS-CoV-2 pseudo-viruses: 0.451 ng/mL
[9]
  Neutralization Effects (IC50) against SARS-CoV-2 pseudo-viruses: 0.272 ng/mL
[10]
  Neutralization Effects (IC50) against SARS-CoV-2 pseudo-viruses: 0.311 ng/mL
[11]
  Neutralization Effects (IC50) against SARS-CoV-2 pseudo-viruses: 0.182 ng/mL
[12]
  Neutralization Effects (IC50) against SARS-CoV-2 pseudo-viruses: 0.72 ng/mL
[13]
  Neutralization Effects (IC50) against SARS-CoV-2 pseudo-viruses: 7.51 ng/mL
[14]
  Neutralization Effects (IC50) against SARS-CoV-2 pseudo-viruses: 0.377 ng/mL
[15]
  Neutralization Effects (IC50) against SARS-CoV-2 pseudo-viruses: 0.652 ng/mL
[16]
  Neutralization Effects (IC50) against SARS-CoV-2 pseudo-viruses: 0.899 ng/mL
[2]
  EC50: 0.0104 nM
[17]
  Neutralization activity (IC50) against pseudo-virus: 6.82 ng/mL
[18]
  Neutralization activity (IC50) against pseudo-virus: 1.76 ng/mL
[19]
  Neutralization activity (IC50) against pseudo-virus: 1.34 ng/mL
[20]
  Neutralization activity (IC50) against pseudo-virus: 0.859 ng/mL
[21]
  Neutralization activity (IC50) against pseudo-virus: 1.19 ng/mL
[22]
  Neutralization activity (IC50) against pseudo-virus: 0.423 ng/mL
[23]
  Neutralization activity (IC50) against pseudo-virus: 46.6 ng/mL
[24]
  Neutralization activity (IC50) against pseudo-virus: 1.94 ng/mL
[25]
  Neutralization activity (IC50) against pseudo-virus: 1.66 ng/mL
[26]
  EC50: 0.144 nM
[3]
  EC50: 0.0606 nM
[27]
  Kd: 0.0359 nM
  koff: 6.06e-05 s⁻¹
  kon: 1.69e+06 M⁻¹ s⁻¹
[28]
  Kd: 0.045 nM
  koff: 5.95e-05 s⁻¹
  kon: 1.32e+06 M⁻¹ s⁻¹
[29]
  Kd: 0.203 nM
  koff: 0.000222 s⁻¹
  kon: 1.09e+06 M⁻¹ s⁻¹
[30]
  Kd: 0.0811 nM
  koff: 0.000535 s⁻¹
  kon: 6.59e+06 M⁻¹ s⁻¹
